According to the BET-seq Pho4 binding data (Le et al. 2018):
Some of the results follow. These are noisy estimates, calculated here from bound and input reads.

target: T1, Pho4 (S. cerevisiae) (UniProt P07270); assay: relative binding free energy (BET-seq); higher = weaker binding; conditions: reference: library average
T1 sequence: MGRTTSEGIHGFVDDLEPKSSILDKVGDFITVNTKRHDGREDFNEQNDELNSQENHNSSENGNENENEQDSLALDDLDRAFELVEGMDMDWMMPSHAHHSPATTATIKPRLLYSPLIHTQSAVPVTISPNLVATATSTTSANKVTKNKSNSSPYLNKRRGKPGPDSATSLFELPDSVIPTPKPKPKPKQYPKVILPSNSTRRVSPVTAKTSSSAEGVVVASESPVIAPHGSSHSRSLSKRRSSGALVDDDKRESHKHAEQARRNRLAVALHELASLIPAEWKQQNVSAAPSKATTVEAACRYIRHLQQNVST

Sequence	relative binding free energy [kcal/mol]
TGTGTCACGTGACAGA	0.19
TCAGTCACGTGAGGAG	0.27
TAGGCCACGTGAGGTT	0.25
TAAGGCACGTGTAATT	-0.02
AGTGTCACGTGGTTCC	0.14
TTCTGCACGTGAGTTA	0.19
AGAGGCACGTGGTCAT	-0.29
GGGGTCACGTGAGCTA	0.35
AGCCGCACGTGGTTGG	-0.12
TGGTGCACGTGAGCGT	0.16
AGCTACACGTGGAGTG	0.17
AGTGCCACGTGTGTCT	-0.06
TTTTCCACGTGTGTAA	0.17
CGAGCCACGTGTGGGT	-0.05
TTAGACACGTGGAATT	0.16
CTTGTCACGTGTGATT	0.28
TTTTTCACGTGAGTTC	0.46
ATGGTCACGTGCGGAT	0.09
GCAGGCACGTGGTGTT	-0.19
GGTGTCACGTGGCTAT	-0.04
AGTAACACGTGGGGAG	-0.14
TTAGGCACGTGCAGTA	-0.18
TTGCTCACGTGGCGTG	0.04
TAAAGCACGTGGGTTA	-0.12
TGTAGCACGTGTGAAG	0
GTAATCACGTGCAGGA	0.35

Sequence	relative binding free energy [kcal/mol]
AAGTGCACGTGGTTCT	0
TGAGACACGTGAGAGG	0.2
GGGTGCACGTGCGAGA	0.06
TCTTACACGTGTGGGG	0.21
AGTTTCACGTGGCGAT	0.2
GGCGCCACGTGCGGGG	-0.25
TCGCGCACGTGTGTGT	-0.17
ACGGGCACGTGCGGGT	-0.15
ATTGACACGTGTTGCA	-0.13
TAGAGCACGTGTGGGA	-0.05
TTGTCCACGTGTTGGT	0.12
ATGCGCACGTGGGTCG	-0.33
TGCATCACGTGGTTGT	0.09
AGGCGCACGTGGAGAG	-0.11
ACTGTCACGTGTAGTG	0.13
TACATCACGTGGTGGT	0
GTGTTCACGTGGGACG	0.32
ATGTACACGTGGGTAG	-0.08
TCGTTCACGTGGGTTC	0.19
GGTGTCACGTGCATGG	0.23
GTTTGCACGTGAATAA	0.24
CTGAGCACGTGGGTTC	-0.16
CGCTTCACGTGGGTTT	0.35
TGTTCCACGTGTGGCT	0.11
TTATGCACGTGAACTT	0.27
GAGGACACGTGGAGAG	0.06

Sequence	relative binding free energy [kcal/mol]
ATCGACACGTGGGGGG	-0.1
TTGCTCACGTGTCTTG	0.33
AAAAGCACGTGTTGAT	0
ATGTGCACGTGGGCAT	-0.2
TGATTCACGTGGTGAG	0.23
TTGGGCACGTGGTTGT	-0.02
TGGATCACGTGTGGGT	0.16
AGAGGCACGTGTGGCT	-0.02
ATGCTCACGTGTCGTG	0.24
CTCTTCACGTGGGAGG	0.11
GGTACCACGTGTTATT	0.08
TTGCTCACGTGGAATG	0.2
CGTGTCACGTGTGATA	0.07
GTGAGCACGTGGCTGA	-0.14
TTAGACACGTGTGTCG	0.03
TTTTGCACGTGCTGTC	-0.12
AGTATCACGTGAGGCT	0.31
ATGGTCACGTGTGGCC	0.03
TTTAACACGTGCAGTG	0.05
TCAGGCACGTGGGCGG	-0.12
AGTGTCACGTGAACGG	0.13
TCACTCACGTGGGTGG	0.09
ATGGTCACGTGAATAA	0.34
ACTGTCACGTGACGGG	0.22
AATTTCACGTGTTGCT	0.19
TCTTGCACGTGATATA	0.13

Sequence	relative binding free energy [kcal/mol]
GCTTGCACGTGATGTG	0.17
AGGAGCACGTGGATTG	-0.16
CGGTTCACGTGGTAAT	0.3
AGGAGCACGTGTTGTG	-0.04
GTGGCCACGTGGGTAG	-0.16
GAGGTCACGTGGGTAG	0.12
TTGTTCACGTGCTTCG	0.14
GTCGACACGTGGTGGT	-0.01
TCAGGCACGTGGTTTG	-0.09
GTCGACACGTGGGGCT	-0.06
TGGATCACGTGTTGGA	0.24
GCGTTCACGTGAAAGT	0.36
TGTGACACGTGAGTAT	0.12
GATAGCACGTGCAGGT	0.01
CCTGGCACGTGTGGCG	-0.04
TAGGACACGTGCTGGG	-0.05
GTTATCACGTGTTAAG	0.26
GGGGTCACGTGTAAAG	0.28
ATCTGCACGTGGAGAT	0.09
GAGGGCACGTGTTATT	-0.1
TCTTGCACGTGGTAGT	-0.01
TGCAACACGTGGGGGA	-0.03
AAGGACACGTGGGAGA	0.06
TATACCACGTGAGGGT	0.12
GGTATCACGTGAGACG	0.35
TAATTCACGTGCTGGT	0.37

Sequence	relative binding free energy [kcal/mol]
TTAGTCACGTGTATTA	0.04
CCTTGCACGTGCGGGT	0
CGGGTCACGTGGGTAG	-0.04
GTTGGCACGTGTTGGT	0.08
ATTGGCACGTGTAACT	0.02
AGTTACACGTGGAGGG	0.22
GACATCACGTGGTGTT	0.07
ATTGTCACGTGTAGTT	0.06
ATGATCACGTGGTAGA	0.26
GAAAGCACGTGATTGT	0.28
TGAAACACGTGGATGT	0.06
GGTCTCACGTGGATTG	0.12
AGTCGCACGTGAGCGT	0.18
TCTTGCACGTGTGAAG	0.12
AAGGTCACGTGGTTTC	0.03
GGAGTCACGTGGTCGT	0.07
GTTGGCACGTGGCTTG	-0.05
TGGTGCACGTGGACCG	-0.05
TACGGCACGTGTGGGG	-0.04
GTAGACACGTGAAGGT	0.36
TCTGTCACGTGTATGA	0.11
CATTACACGTGTGGGG	0.11
GCTGGCACGTGGTGCG	-0.14
TGTAACACGTGTGGCA	0.07
TTAGTCACGTGGTAGA	-0.05
AGGATCACGTGGAGGG	0.07

Sequence	relative binding free energy [kcal/mol]
GAAAGCACGTGGAGTT	0.07
CGTGGCACGTGTGATT	0.06
TTTGGCACGTGCAGCA	-0.09
TAAGGCACGTGTCAGG	-0.18
TCGGGCACGTGCCGGG	-0.21
AATAGCACGTGGGTTT	-0.17
TAATCCACGTGTAAGG	0.17
GGGCTCACGTGAAGGG	0.28
TGGCTCACGTGGAGAG	0.12
ATTTGCACGTGCTAGG	0.09
GAAATCACGTGTATGT	0.14
TAATACACGTGTGTGG	0.08
TGGGGCACGTGTGGAT	0.06
GGCTTCACGTGTGGTA	0.23
TAATTCACGTGTTCTA	0.3
GGTGTCACGTGTCAGC	0.08
GTGGGCACGTGCTAGG	-0.23
TGCTGCACGTGGAGTA	-0.07
GCAGGCACGTGGGTGA	-0.29
GTTGGCACGTGTGCTG	-0.07
CGATGCACGTGGTTAG	0.01
TTTTGCACGTGCACGG	-0.15
GTACACACGTGGCGGT	0.09
ATAGGCACGTGAGTGC	0.21
TGTCGCACGTGAGGTT	0.13
GGTGACACGTGGGTAC	-0.14

Sequence	relative binding free energy [kcal/mol]
GTTAGCACGTGATGGC	0.17
CGTATCACGTGGCGTA	0.06
CAGAGCACGTGAGGTG	0.06
AGTGTCACGTGGTGCC	-0.03
TGCGTCACGTGTGCAG	0.08
AAGAGCACGTGGCTGG	-0.1
GGTTTCACGTGCGGAA	0.17
TTATTCACGTGGGCCT	0.13
TTATGCACGTGTAGAT	0.09
TAAATCACGTGTCATG	0.26
GGAGACACGTGGGTGC	-0.18
GTCGGCACGTGATATG	0.08
GTCGTCACGTGGGTGG	0.12
AGATTCACGTGGTGGT	0.1
GTTCGCACGTGACGGG	0.02
TTTAACACGTGGGCAT	-0.14
ATGTGCACGTGAGTTC	0.12
TTGTACACGTGATGAG	0.04
CTTAGCACGTGGTAGG	-0.18
ATAGGCACGTGGCGCG	-0.22
TAGGGCACGTGGATTG	0
GTGGGCACGTGGTACA	-0.16
TTCATCACGTGTTGTG	0.07
GTGTTCACGTGGAGGT	0.24
AGTTGCACGTGCGGGT	0
GATGTCACGTGTTAAA	0.17

Sequence	relative binding free energy [kcal/mol]
TGGGACACGTGGTGCG	-0.17
ATTATCACGTGTATGA	0.23
TGTTACACGTGGTTGC	0.06
CGGGGCACGTGAGGCT	0.14
TACCGCACGTGTTAGG	0.11
GAGTGCACGTGGTTTT	0.11
TATACCACGTGGGTTA	-0.18
GGCATCACGTGGAGAG	0.25
TGCGTCACGTGTTGAG	0.15
AGGTTCACGTGAGCGG	0.45
TGCCACACGTGGGGTT	-0.09
GGTAACACGTGCGGTA	0.07
TAGGTCACGTGGTAAC	0.19
TTTACCACGTGTGTGT	-0.15
TGTCTCACGTGTTGAG	0.16
GTTAACACGTGGGGAA	-0.07
AGATGCACGTGGTTGA	-0.14
GCTTACACGTGGTGGG	0.12
AAGTCCACGTGGGAGT	-0.06
AGTTTCACGTGTAATG	0.27
GAGGTCACGTGTGGCG	0.09
GTGTTCACGTGATGAC	0.6
TGGATCACGTGTCAGA	0.39
GGTTGCACGTGGCAGA	0.05
TGAGACACGTGCGGAT	0.09
AGCGTCACGTGTATGA	0.03

Sequence	relative binding free energy [kcal/mol]
AGGCCCACGTGTGTGG	-0.1
GGTAACACGTGCTGGA	0.12
TATGACACGTGGGACG	-0.04
AGGTGCACGTGCTGAT	-0.05
TCTAGCACGTGTGGTT	0.03
ATAATCACGTGGAATA	0.27
ATAATCACGTGGTGCT	-0.03
TTTAGCACGTGGTCAG	-0.32
TATTTCACGTGCTGAT	0.15
TAATACACGTGTATGG	0.16
AGGTCCACGTGGGGCA	-0.17
GGAAGCACGTGAAGCG	0.3
GATAACACGTGGTCGG	-0.03
TTAGGCACGTGGCGTA	-0.29
TGAAGCACGTGGGCTT	-0.11
AATATCACGTGTGTTA	-0.07
TTCGACACGTGGTCTG	-0.02
AGCGGCACGTGTGTAA	-0.05
GTTTTCACGTGGTTTT	0.45
TATGGCACGTGTACTG	-0.04
TTGTGCACGTGATTGT	0.16
GGCGACACGTGAGTGT	0.18
